Source: patent publication US9457043B2, “Combination therapy using c-Met inhibitor and c-Myc inhibitor” (Samsung Electronics Co., Ltd., priority 2013, dated 2016)

Assays:
Details in all cases: rank among the four antibodies huAbF46-H4-A1, -A2, -A3, -A5
c-Met [1] = biological target: T1, c-Met (Homo sapiens, UniProt P08581); assay: c-Met degradation degree by anti-c-Met antibodies
c-Met [2] = biological target: T1, c-Met; assay: Affinity for c-Met of affinity-matured antibodies; format: binding
Akt phosphorylation = Akt phosphorylation by anti-c-Met antibodies

T1 sequence (P08581 25-1390): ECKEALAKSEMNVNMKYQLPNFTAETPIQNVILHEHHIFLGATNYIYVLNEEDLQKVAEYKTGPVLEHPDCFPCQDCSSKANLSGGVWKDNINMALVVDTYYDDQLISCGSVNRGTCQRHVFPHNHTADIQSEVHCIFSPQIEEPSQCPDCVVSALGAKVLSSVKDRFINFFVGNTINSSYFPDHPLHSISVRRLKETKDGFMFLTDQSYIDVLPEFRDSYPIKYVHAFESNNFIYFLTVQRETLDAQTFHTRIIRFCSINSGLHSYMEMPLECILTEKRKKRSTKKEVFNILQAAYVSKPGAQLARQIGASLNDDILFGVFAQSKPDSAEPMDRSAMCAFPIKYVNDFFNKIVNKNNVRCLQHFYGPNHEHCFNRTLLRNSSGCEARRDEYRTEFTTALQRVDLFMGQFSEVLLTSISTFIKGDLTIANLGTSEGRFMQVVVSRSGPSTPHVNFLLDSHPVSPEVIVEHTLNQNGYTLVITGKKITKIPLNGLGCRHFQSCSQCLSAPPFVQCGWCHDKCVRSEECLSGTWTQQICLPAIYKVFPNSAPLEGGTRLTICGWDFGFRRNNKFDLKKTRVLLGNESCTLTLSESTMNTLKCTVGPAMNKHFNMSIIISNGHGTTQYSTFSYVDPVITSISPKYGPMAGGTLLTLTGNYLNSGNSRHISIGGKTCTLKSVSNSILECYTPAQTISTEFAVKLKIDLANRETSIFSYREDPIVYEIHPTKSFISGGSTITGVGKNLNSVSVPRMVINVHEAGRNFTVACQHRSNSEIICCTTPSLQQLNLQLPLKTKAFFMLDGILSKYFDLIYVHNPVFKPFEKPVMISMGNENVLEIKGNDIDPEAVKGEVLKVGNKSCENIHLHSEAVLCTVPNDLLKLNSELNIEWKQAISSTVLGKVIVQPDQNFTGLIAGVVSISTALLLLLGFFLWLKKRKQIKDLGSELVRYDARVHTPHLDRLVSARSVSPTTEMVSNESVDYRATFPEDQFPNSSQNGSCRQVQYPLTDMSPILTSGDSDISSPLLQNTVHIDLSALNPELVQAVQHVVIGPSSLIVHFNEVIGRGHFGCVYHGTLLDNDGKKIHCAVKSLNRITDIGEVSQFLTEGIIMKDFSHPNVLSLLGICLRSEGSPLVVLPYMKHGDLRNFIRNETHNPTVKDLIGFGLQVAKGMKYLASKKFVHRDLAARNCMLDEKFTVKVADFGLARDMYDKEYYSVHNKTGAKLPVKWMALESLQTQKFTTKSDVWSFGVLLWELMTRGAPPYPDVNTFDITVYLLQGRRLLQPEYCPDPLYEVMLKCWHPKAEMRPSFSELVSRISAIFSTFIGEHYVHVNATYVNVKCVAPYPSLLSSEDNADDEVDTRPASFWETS

c-Met degradation degree (c-Met [1]): lowest
affinity for c-Met (c-Met [2]): highest
B1: huAbF46-H4-A1: affinity-matured humanized anti-c-Met antibody of L3-1 origin (CDR-L3 SEQ ID NO: 13), U6-HC7 hinge (antibody)
heavy: EVQLVESGGGLVQPGGSLRLSCAASGFTFTDYYMSWVRQAPGKGLEWLGFIRNKANGYTTEYSASVKGRFTISRDNSKNTLYLQMNSLRAEDTAVYYCARDNWFAYWGQGTLVTVSSASTKGPSVFPLAPSSKSTSGGTAALGCLVKDYFPEPVTVSWNSGALTSGVHTFPAVLQSSGLYSLSSVVTVPSSSLGTQTYICNVNHKPSNTKVDKKVEPKSCDCH[human IgG1 Fc cut from this listing]
light: DIQMTQSPSSLSASVGDRVTITCKSSQSLLASGNQNNYLAWHQQKPGKAPKMLIIWASTRVSGVPSRFSGSGSGTDFTLTISSLQPEDFATYYCQQSYSRPYTFGQGTKVEIKRTVAAPSVFIFPPSDEQLKSGTASVVCLLNNFYPREAKVQWKVDNALQSGNSQESVTEQDSKDSTYSLSSTLTLSKADYEKHKVYACEVTHQGLSSPVTKSFNRGEC
Akt phosphorylation (Akt phosphorylation): lowest
